According to the supplement of paper PMC7125110:
± gives the standard error. This sample is rich in variants without activity.

B1: glmS ribozyme (parent)
chain: AUAAAAGCGCCAGAACUACAGAAAUGUAGUUGACGAGGAGGAGGUUUAUCGAAUUUUCGGCGGAUGCCUCCAAA

What was measured:
Conditions in all cases: with glucosamine-6-phosphate
[1] = variants of: B1; test: self-cleavage kobs at 40 uM GlcN6P; higher = faster cleavage; RNA array
Procedure, shortened: (§1)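 Over ~14 h at 37 °C, tiles were imaged as glucosamine-6-phosphate (40 μM to 10 mM) in HEPES/KCl/Mg(OAc)2 buffer flowed across sequenced MiSeq chips. The chips carried barcoded ribozyme variants transcribed in situ by E. coli RNA polymerase and tracked with a hybridised Cy3 probe. After normalisation to baseline and to non-cleaving reference variants, one- or two-exponential decay fits of per-tile medians gave kobs. kcat and KM followed from weighted Michaelis–Menten fits across concentrations.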

[2] = variants of: B1; test: self-cleavage kobs at 10000 uM GlcN6P; higher = faster cleavage; RNA array
Procedure, shortened: as §1

[3] = variants of: B1; test: self-cleavage kobs at 640 uM GlcN6P; higher = faster cleavage; RNA array
Procedure, shortened: as §1

[4] = variants of: B1; test: self-cleavage kobs at 160 uM GlcN6P; higher = faster cleavage; RNA array
Procedure, shortened: as §1

[5] = variants of: B1; test: self-cleavage kobs at 2500 uM GlcN6P; higher = faster cleavage; RNA array
Procedure, shortened: as §1

Variant	self-cleavage kobs at 40 uM GlcN6P [1] [s⁻¹]	self-cleavage kobs at 10000 uM GlcN6P [2] [s⁻¹]	self-cleavage kobs at 640 uM GlcN6P [3] [s⁻¹]	self-cleavage kobs at 160 uM GlcN6P [4] [s⁻¹]	self-cleavage kobs at 2500 uM GlcN6P [5] [s⁻¹]
AUAAAGGCGCCAGAACUACAGAAAUGUAGUUGACGAGGAGGAGGUUUAUCUAAUUUCCGGCGGAUGCCUCCAAA [A6G G51U U57C]	< 1e-05	< 1e-05	–	–	–
AUAAAGGCGCCAGAACUACAGAAAUGUAGUUCACGAGGAGGAGGUUUAUCGAAUUUUCGGCGGAUGCCUCCAAA [A6G G32C]	< 1e-05	< 1e-05	< 1e-05	< 1e-05	–
AUAAAGGCGCCAGAACUACAGAAAUGUAGUUUACGAGGAGGAGGUUUACCGAAUUUUCGGCGGAUGCCUCCAAA [A6G G32U U49C]	< 1e-05	< 1e-05	< 1e-05	< 1e-05	< 1e-05
AUAAAGGCGCCAGAACUACAGAAAUGUAGUUGACGAGGAGGAGGUUUAUAGAAUUUUCGGCGGAUGCCUCCAAA [A6G C50A]	< 1e-05	–	< 1e-05	< 1e-05	–
AUAAAGGCGCUAGAACUACAGAAAUGUAGUUUACGAGGAGGAGGUUAAUCGGAUUUUCGGCGGAUGCGUCCAAA [A6G C11U G32U U47A A52G C68G]	< 1e-05	–	–	–	< 1e-05
AUAAAGGCGCCAGAACUACAGAAAUGUAUUUGACGAGGAGGAGGUUUAUCGAAUUUUCGGCGGAUGCCUCCAAA [A6G G29U]	< 1e-05	–	–	< 1e-05	–
AUAAAGGCGCCAGAACUACAGAAAUGUAGUUUACGAGGAGGAGGUGUAUCGAAUUUUCGGCGGAUGCCUCCAAA [A6G G32U U46G]	< 1e-05	< 1e-05	–	–	–
AUAAAGGCGCCAGAACUACAGAAAUGUAGUUGACGAGGAGGAGGUUUAUCGAAUUUUCGGCAGAUGCCUCCAAA [A6G G62A]	< 1e-05	< 1e-05	< 1e-05	< 1e-05	< 1e-05
AUAAAGGCGCCAGAACUACAGAAAUGUAGUUGACGAGGAGGAGGUUUAUCGAAUUUUCGGCGGAUGCCUCUAAA [A6G C71U]	< 1e-05	–	–	–	–
AUAAAGGCGCCAGAACUACAGAAAUGUAGUUGACGAGGAGGAGGUUUAUGGAAUUUUCGGCGGUUGCCUCCAAA [A6G C50G A64U]	7.9e-05 ± 3.2e-05	0.000157 ± 2.5e-05	–	–	–
AUAAAGGCGCCAGAACUACAGAAAUGUAGUUGACGAGGAGCAGGUUUAUCGAAUUUUCGGCGGAUGCCUCCAAA [A6G G41C]	< 1e-05	< 1e-05	< 1e-05	< 1e-05	< 1e-05
AUAAAGGCGCCAGAACUACAGAAAUGUAGUUGACGAGGAGUAGGUUUAUCGAAUUUUCGGCGGAUGCCUCCAAA [A6G G41U]	< 1e-05	–	< 1e-05	< 1e-05	–
AUAAAGGCGCCAGAACUACAGAAAUGUAGUUGACGAGGAGGAGGUUUAUCGAAUUUUCGGCGGAUGAUUCCAAA [A6G C67A C68U]	< 1e-05	–	–	–	–
AUAAAGGCGCCAGAACUACAGAAAUGUAGUUGACGAGGAGGAGUUUUAUCGAAUUUUCGUCGGAUGCCUCCAAA [A6G G44U G60U]	< 1e-05	–	–	–	< 1e-05
AUAAAGGCGCCAUAACUACAGAAAUGUAGUUGACAAGGAGGAGGUUUAUUGACUUUUCGGCGGAUGCCUCCAAA [A6G G13U G35A C50U A53C]	< 1e-05	–	–	–	–
AUAAAGGCGCCAGAAAUACAGAAAUGUAGUUGACGAGGAGGAGGUUUAUCGAAUCUUCGGCGGCUGCCUCCAAA [A6G C16A U55C A64C]	< 1e-05	–	–	–	< 1e-05
AUAAAGGCGCCAGAACUACAGAAAUGUAGUUGAGGAGGAGGAGGUUUAUCGAAUUUUCGGCGGAUGCCUCCAAA [A6G C34G]	< 1e-05	< 1e-05	< 1e-05	–	–
AUAAAGACGCCAGAACUACAGAAAUGUAGUUGGUGAGGAGGAGGUUUCUCGAAUUUUCGGCGGAUGCCUCCAAA [A6G G7A A33G C34U A48C]	< 1e-05	–	–	–	–
AUAAAGGCUCGAGAACUACAGAAAUGUAGUUGACGAGGAGGAGGUUUAUCGAAUUUUCGGCGGAUGCUUCCAAA [A6G G9U C11G C68U]	< 1e-05	–	–	–	–
AUAAAGGCGCCAGAACUACAGAAAUGUAGUUGACGAGGAGGAGGUUUAUCGAAUUUUCGGCGGAUGCAUCCAAA [A6G C68A]	< 1e-05	< 1e-05	< 1e-05	< 1e-05	< 1e-05
AUAAAGGCGCGAGAACUACAGAAAUGUAGUUGACGAGGAGGUGGUUUAUCGAAUUUUCGGCGGAUGCCUCCAAA [A6G C11G A42U]	< 1e-05	< 1e-05	–	–	< 1e-05
AUAAAGGCGCCAGAACUACAGAAAUGUAGUUGACGAGGAGGAGGUUUAUCGAAUUUUCGGCGGAUGGCUCCAAA [A6G C67G]	< 1e-05	–	–	< 1e-05	< 1e-05
AUAAAGCCGCCAGAACUACAGAAAUGUAGUUGACGAGGAGGAGGUUUAUCGAAUUUUCGGCGGAUGCCUCCAAA [A6G G7C]	< 1e-05	–	–	–	–
AUAAAGGCGCCACAACUACAGAAAUGUAGUUGACGAGGAGGAGGUUUAUCGAAUUUUCGGCGGAUGCCUCCAAA [A6G G13C]	< 1e-05	< 1e-05	< 1e-05	< 1e-05	< 1e-05
AUAAAGGCGCCAGAACUACAGAAAUGUAGUUGACGAGGAGGAGGUUUAUCGAAUUUUGGGCGGAUGCCUCCAAA [A6G C58G]	< 1e-05	< 1e-05	< 1e-05	< 1e-05	< 1e-05
AUAAAGGCGCCAGAACUACAGAAAUGUAGUUGACGAGGAGGAGGUUUAUCGAAUUUUUGGCGGAUGCCUCCAAA [A6G C58U]	< 1e-05	< 1e-05	< 1e-05	< 1e-05	< 1e-05
AUAAAGGCGCCAGAACUACAGAAAUGUAGUUGACGAGGAGGAGGUUUAUGGAAUUUUGGGCGGAUGCCUCCAAA [A6G C50G C58G]	0.000111 ± 2.7e-05	–	–	0.000451 ± 0.0001	–
